Data: ChEMBL document CHEMBL4888484, “Replenishing the malaria drug discovery pipeline: Screening and hit evaluation of the MMV Hit Generation Library 1 (HGL1) against asexual blood stage Plasmodium falciparum ,using a nano luciferase reporter read-out” (2022)
The whole screen tested about 150,000 compounds, of which about 540 (0.36%) showed an effect of 50% or more. The list shows a part of the results.

Each compound was assayed on Plasmodium falciparum (assay: Primary screen in NF54 nanoGlo assay, in single point, at 2uM, 72h; a lower Z score goes with more inhibition). Settings: timepoint 72 hour.
Assay type: functional, Erythrocyte
With `CC(C)[C@H]1CCCN(c2nccnc2C#N)CC1` the “% Inhibition” value was 4% and the Z score was -0.57.
For `Cc1cc(N)n(S(=O)(=O)c2cn(C)nc2C)n1`, the “% Inhibition” value was -37% and the Z score was 4.33.
For `CCc1cc(CC)c(NC(=O)N2CCC[C@H]2c2nc(C)no2)c(CC)c1`, the “% Inhibition” value was 7% and the Z score was -0.93.
`CCn1c(CC2CCN(Cc3ccc(O)c(C(=O)O)c3)CC2)nn(C)c1=O` was tested, and the “% Inhibition” value was -6% and the Z score was 1.28.
`CCNC(=O)c1cccc(-n2cnc3c(C)ncnc32)c1` was tested, and the “% Inhibition” value was 9% and the Z score was -1.27.
`CO[C@@]1(c2nnc3n2CC(C)(C)CC3)CCOC1` was tested, and the “% Inhibition” value was -6% and the Z score was 1.17.
With `CN1C(=O)[C@@]2(c3ccccc31)[C@@H](C(=O)Nc1ccc(F)cc1)C[C@H]1CCCN12` the “% Inhibition” value was -26% and the Z score was 2.48.
For `COc1ccc(-c2noc(-c3c(C)n[nH]c3C)n2)cc1`, the “% Inhibition” value was 4% and the Z score was -0.49.
In the case of `CC1CCCC(NC(=O)C2N(CCN(C)Cc3ccccc3)C(=O)[C@@H]3C(C(=O)Nc4ccc(Cl)cc4)[C@@H]4C=C[C@]23O4)C1C` (stereo partly specified), the “% Inhibition” value is reported as 8% and the Z score is reported as -1.21.
For `CCCN1C(=O)CC[C@@H]2CN(C(=O)c3ccc(F)cc3Cl)CC[C@@H]21`, the “% Inhibition” value was -4% and the Z score was 0.57.
In the case of `CC[C@H](C)N(C)C(=O)Nc1ccc(S(N)(=O)=O)cc1`, the “% Inhibition” value is reported as 3% and the Z score is reported as -0.52.
With `CS(=O)(=O)N[C@H]1CC12CCN(C(=O)c1c[nH]c3ccccc13)CC2` the “% Inhibition” value was -3% and the Z score was 0.42.
`CC(C)(O)CN1CCN(C(=O)c2c[nH]c3cc(Cl)ccc23)CC1` was tested, and the “% Inhibition” value was -6% and the Z score was 1.23.
`CC1CCC2(CC1)OCC(CNC(=O)C1CCCN1C1CCOCC1)O2` (stereo unspecified) was tested, and the “% Inhibition” value was -15% and the Z score was 1.65.
With `Cc1ccc(CNC(=O)Cc2nnc(Nc3ccccc3)s2)cc1` the “% Inhibition” value was -15% and the Z score was 1.8.
With `CCCn1c(NCc2cc(Cl)ccc2O)nc2ccccc21` the “% Inhibition” value was 33% and the Z score was -3.71.
For `CC[C@@H](CNC(=O)c1csc2c1CCN(Cc1c(C)noc1C)C2)N(C)C`, the “% Inhibition” value was -1% and the Z score was 0.08.
With `Cc1cc(-c2ccccc2)c(C#N)c(=O)n1C(=O)c1ccc(C#N)cc1` the “% Inhibition” value was 37% and the Z score was -1.09.
With `COc1ncccc1CNC(=O)C(=O)Nc1c(C)cnn1[C@H]1CCN(Cc2ccccc2)C1` the “% Inhibition” value was -21% and the Z score was 3.23.
In the case of `Cn1c(=O)c2c(ncn2CC(=O)N2c3ccccc3CCc3ccccc32)n(C)c1=O`, the “% Inhibition” value is reported as -2% and the Z score is reported as 0.26.
With `O=C(NCCc1cccs1)Nc1cnns1` the “% Inhibition” value was -14% and the Z score was 1.42.
`CC(C)c1cc(CN(C)C(=O)Nc2ccnn2Cc2cccs2)no1` was tested, and the “% Inhibition” value was 1% and the Z score was -0.18.
For `Cn1nc(C(F)(F)F)c(Cl)c1CN`, the “% Inhibition” value was -10% and the Z score was 1.62.
With `CC(NC(=O)C1CCN(S(C)(=O)=O)c2ccccc2O1)c1ccccc1` (stereo unspecified) the “% Inhibition” value was -4% and the Z score was 0.5.
For `COCc1nc([C@H]2C[C@H](NC(=O)c3cc(C#N)cn3C)C2)cc(=O)[nH]1`, the “% Inhibition” value was 3% and the Z score was -0.56.
In the case of `Cc1ccc(CNC(=O)CCC(=O)Nc2nnc3ccccn23)o1`, the “% Inhibition” value is reported as 6% and the Z score is reported as -0.65.
`CNC(=O)[C@@H](C)CN(C)CCCc1ccc(F)cc1` was tested, and the “% Inhibition” value was 1% and the Z score was -0.12.
With `O=C(c1cccc(=O)[nH]1)N1CCOC[C@H]1C1CC1` the “% Inhibition” value was -7% and the Z score was 1.31.
`CO[C@H]1C[C@@H](O)C12CCN(C(=O)c1ccc(C(C)C)cc1)CC2` was tested, and the “% Inhibition” value was -11% and the Z score was 1.44.
For `Cc1cc(C[C@H](C)n2cnc3nccnc3c2=O)[nH]n1`, the “% Inhibition” value was -13% and the Z score was 2.07.
For `CCNC(=O)c1ccc(OC(=O)c2cccc3cn[nH]c23)cc1`, the “% Inhibition” value was -12% and the Z score was 1.87.
With `CN1CCN(c2cc(-c3ccccc3)nc3ncnn23)C(C)(C)C1=O` the “% Inhibition” value was -15% and the Z score was 2.28.
In the case of `CCn1c(C2CCN(Cc3ccc(C(=O)OC)cc3)CC2)nn(CCOC)c1=O`, the “% Inhibition” value is reported as -2% and the Z score is reported as 0.28.
For `CNC(=O)c1cccnc1N1CC[C@H](CC2CC2)C1`, the “% Inhibition” value was -10% and the Z score was 1.4.
With `COc1ccccc1Nc1nc(-c2ccccc2)c(Oc2ccc(Cl)cc2)s1` the “% Inhibition” value was -2% and the Z score was 0.49.
`COc1ccc(-c2cn(Cc3snnc3C)nn2)c(OC)c1C` was tested, and the “% Inhibition” value was 3% and the Z score was -0.58.
For `CCN1C(=O)[C@](C)(C(=O)Nc2ccc(OC)cc2)Oc2cccnc21`, the “% Inhibition” value was -12% and the Z score was 2.08.
With `Cc1cc(C)n(CCC(=O)N(C)Cc2nc(CC(C)C)no2)c(=O)n1` the “% Inhibition” value was -11% and the Z score was 2.1.
`Cc1ccc(CN(CCN2CCOCC2)C[C@@H](O)Cc2ccccc2)o1` was tested, and the “% Inhibition” value was -9% and the Z score was 1.41.
`CC1CCCCC1NC(=O)C1(C)Cn2c(cc3occc32)C(=O)N1c1ccc(Cl)cc1` (stereo unspecified) was tested, and the “% Inhibition” value was -8% and the Z score was 1.59.
With `CN(C)c1ccc(-c2nncnn2)cc1` the “% Inhibition” value was -14% and the Z score was 1.6.
For `CCCOc1ccc2ccccc2c1CN1CCN(C)[C@@H]2CS(=O)(=O)C[C@@H]21`, the “% Inhibition” value was -5% and the Z score was 0.52.
`Cc1ccc(/C=C(\NC(=O)c2ccccc2)C(=O)NC2CCN(Cc3ccccc3)CC2)o1` was tested, and the “% Inhibition” value was 6% and the Z score was -1.12.
`C=C1CCC(NC(=O)c2ccc3nsnc3c2)CC1` was tested, and the “% Inhibition” value was 2% and the Z score was -0.24.
`Cc1ccc(OCC(=O)Nc2cccc(O)c2)c(-n2cnnc2)c1` was tested, and the “% Inhibition” value was -10% and the Z score was 1.26.
With `C[C@]1(C(=O)O)CCN(C(=O)c2ccc3c(c2)CCC3)C1` the “% Inhibition” value was 3% and the Z score was -0.58.
In the case of `O=C(NC1CCN2CCCC2C1)c1ccc(Oc2ccc(Br)cc2)c(F)c1` (stereo unspecified), the “% Inhibition” value is reported as -12% and the Z score is reported as 1.25.
With `Cc1cc(F)ccc1S(=O)(=O)N1CCC[C@H](Cc2nc(C3CC3)no2)C1` the “% Inhibition” value was 8% and the Z score was -1.04.
`COc1cc2c(cc1OC)[C@H](c1ccc(F)cc1)N(C(=O)c1cccc(F)c1)CC2` was tested, and the “% Inhibition” value was -7% and the Z score was 0.91.
In the case of `Cc1ccc(NC(=O)Cn2cccc2-c2nc(-c3ccc(Cl)cc3)cs2)nc1`, the “% Inhibition” value is reported as -11% and the Z score is reported as 1.37.
With `CCN1C[C@H](CN(C)C(=O)CCn2cnc3c2c(=O)n(C)c(=O)n3C)Oc2ccccc21` the “% Inhibition” value was -4% and the Z score was 0.54.
With `C[C@@H](c1cnccn1)N1CCc2ccc(S(C)(=O)=O)cc2CC1` the “% Inhibition” value was 3% and the Z score was -0.55.
For `O=C(N[C@H]1CCCc2c1[nH]c1c(Cl)cccc21)c1ccncc1`, the “% Inhibition” value was -6% and the Z score was 0.79.
